Structures are written as SMILES. The entries are a selection whose mix differs from that of the whole data set.

One assay deals with T1, Serine/threonine-protein kinase Sgk2 (Homo sapiens) (UniProt Q9HBY8).
T1 sequence (whole entry): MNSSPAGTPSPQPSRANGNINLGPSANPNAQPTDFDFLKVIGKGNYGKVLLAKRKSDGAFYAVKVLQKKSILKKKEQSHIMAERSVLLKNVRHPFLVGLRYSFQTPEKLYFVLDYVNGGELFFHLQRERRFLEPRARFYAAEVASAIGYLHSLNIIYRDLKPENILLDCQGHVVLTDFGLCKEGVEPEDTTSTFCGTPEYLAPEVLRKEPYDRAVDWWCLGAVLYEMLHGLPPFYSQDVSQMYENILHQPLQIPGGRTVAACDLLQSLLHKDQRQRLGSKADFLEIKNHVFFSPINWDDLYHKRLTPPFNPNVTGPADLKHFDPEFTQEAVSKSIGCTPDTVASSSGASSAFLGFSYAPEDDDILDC
As to conditions: at 1 µM.
The term inhibition denotes the change of the read-out against control, counted positive when it falls. Turning to `CS(=O)(=O)c1ccc(Oc2nccc(-c3c(-c4ccc(F)cc4)ncn3C3CCNCC3)n2)cc1`, the inhibition is 1.96%.
On the same count and under the same terms, under `O=C1NC(=O)C(c2ccccc2Cl)=C1Nc1cc(Cl)c(O)c(Cl)c1` stands 5.23%; under `CC(C)(C)c1ccc(Oc2nccc(-c3c(-c4ccc(F)cc4)ncn3C3CCNCC3)n2)cc1`, 2.76%.
Consider `COc1ccccc1Oc1nccc(-c2c(-c3ccc(F)cc3)ncn2C2CCNCC2)n1`, for which the inhibition is 2.1%.
`Fc1ccc(-c2ncn(C3CCNCC3)c2-c2ccnc(Oc3ccc(Cl)cc3)n2)cc1`: the inhibition was 1.38%.
Take `O=C1NC(=O)C(c2ccccc2)=C1Nc1ccccc1`: the inhibition was 2.79%.
Same read-out and setting: under `NC(=O)CCc1ccccc1Oc1nccc(-c2c(-c3ccc(F)cc3)ncn2C2CCNCC2)n1` stands 2.65%.
Still for that read-out and setting: in the case of `O=C(O)c1ccc(Oc2nccc(-c3c(-c4ccc(F)cc4)ncn3C3CCNCC3)n2)cc1` it was 2.6%.
In the case of `Fc1ccc(-c2ncn(C3CCNCC3)c2-c2ccnc(Oc3cccc(C(F)(F)F)c3)n2)cc1`, the inhibition amounted to 5.28%.
Turning to `Fc1ccc(Oc2nccc(-c3c(-c4ccc(F)cc4)ncn3C3CCNCC3)n2)cc1`, the inhibition was found to be 3.35%.
On the same count and under the same terms, in the case of `O=C1NC(=O)C(c2cccc([N+](=O)[O-])c2)=C1Nc1cc(Cl)c(O)c(Cl)c1` it was -0.94%; in that of `COc1ccccc1C1=C(Nc2ccccc2)C(=O)NC1=O`, 1.68%.
On the same count and under the same terms, in the case of `Cc1cccc(Oc2nccc(-c3c(-c4ccc(F)cc4)ncn3C3CCNCC3)n2)c1C` it was 2.96%; in that of `Fc1ccc(-c2ncn(C3CCNCC3)c2-c2ccnc(Oc3cccc(F)c3)n2)cc1`, 3.79%.

Another assay concerns the target T2, Serine/threonine-protein kinase Sgk3 (Homo sapiens) (UniProt Q96BR1).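 Note: reported percentages are averaged inhibition values against SGK3.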
T2 sequence (whole entry): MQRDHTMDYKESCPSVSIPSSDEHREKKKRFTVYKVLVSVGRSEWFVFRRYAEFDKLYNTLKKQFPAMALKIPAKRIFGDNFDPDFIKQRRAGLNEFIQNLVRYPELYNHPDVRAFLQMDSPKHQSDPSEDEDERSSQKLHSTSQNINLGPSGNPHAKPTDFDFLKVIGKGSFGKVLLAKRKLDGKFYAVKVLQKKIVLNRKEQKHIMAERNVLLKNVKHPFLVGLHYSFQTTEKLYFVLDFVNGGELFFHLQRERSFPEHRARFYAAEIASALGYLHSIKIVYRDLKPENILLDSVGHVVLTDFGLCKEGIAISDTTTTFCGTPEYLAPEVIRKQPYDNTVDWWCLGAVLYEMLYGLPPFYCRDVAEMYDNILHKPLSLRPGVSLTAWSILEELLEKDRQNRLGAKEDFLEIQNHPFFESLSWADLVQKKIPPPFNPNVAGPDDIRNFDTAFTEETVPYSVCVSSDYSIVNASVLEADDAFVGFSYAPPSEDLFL
As to conditions: at 0.1 µM.
In the case of `CS(=O)(=O)c1ccc(Oc2nccc(-c3c(-c4ccc(F)cc4)ncn3C3CCNCC3)n2)cc1`, the inhibition was 1.37%.
Still for that read-out and setting: under `O=C1NC(=O)C(c2ccccc2Cl)=C1Nc1cc(Cl)c(O)c(Cl)c1` stands 5.89%.
The same measure, in the same setting: under `CC(C)(C)c1ccc(Oc2nccc(-c3c(-c4ccc(F)cc4)ncn3C3CCNCC3)n2)cc1` stands 1.51%.
Still for that read-out and setting: under `COc1ccccc1Oc1nccc(-c2c(-c3ccc(F)cc3)ncn2C2CCNCC2)n1` stands 3.65%.
As for `Fc1ccc(-c2ncn(C3CCNCC3)c2-c2ccnc(Oc3ccc(Cl)cc3)n2)cc1`, the inhibition is 0.04%.
Same read-out and setting: in the case of `O=C1NC(=O)C(c2ccccc2)=C1Nc1ccccc1` it was 1.97%.
On the same count and under the same terms, in the case of `NC(=O)CCc1ccccc1Oc1nccc(-c2c(-c3ccc(F)cc3)ncn2C2CCNCC2)n1` it was -1.9%; in that of `O=C(O)c1ccc(Oc2nccc(-c3c(-c4ccc(F)cc4)ncn3C3CCNCC3)n2)cc1`, 3.28%.
Same read-out and setting: under `Fc1ccc(-c2ncn(C3CCNCC3)c2-c2ccnc(Oc3cccc(C(F)(F)F)c3)n2)cc1` stands 3.05%; under `Fc1ccc(Oc2nccc(-c3c(-c4ccc(F)cc4)ncn3C3CCNCC3)n2)cc1`, 3.29%; under `O=C1NC(=O)C(c2cccc([N+](=O)[O-])c2)=C1Nc1cc(Cl)c(O)c(Cl)c1`, -0.41%.
As to `COc1ccccc1C1=C(Nc2ccccc2)C(=O)NC1=O`, the inhibition is 3.53%.
Same read-out and setting: in the case of `Cc1cccc(Oc2nccc(-c3c(-c4ccc(F)cc4)ncn3C3CCNCC3)n2)c1C` it was 1.41%; in that of `Fc1ccc(-c2ncn(C3CCNCC3)c2-c2ccnc(Oc3cccc(F)c3)n2)cc1`, 3.65%.
